Variants at the floor of the assay are shown more often than the library holds them.
B1: tRNA (parent)
chain: CUCUCGGUAGCCAAGUUGGUUUAAGGCGCAAGACUUUAAUUUAUCACUACGAAAUCUUGAGAUCGGGCGUUCGACUCGCCCCCGGGAGAUUUUUUCCUCGAGCAA

Variants of: B1
Assay: nonsense suppression (GFP-seq) (ratio to wild type); higher = more function; SUP4oc tRNA, yeast GFP reporter sort-seq
How it was run: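 To measure nonsense suppression, tRNA variants from a library carrying ~3% random mutations were integrated into the yeast genome alongside RFP and a GFP ochre reporter under galactose control. Growth took place in raffinose/galactose medium supplemented with 80 mg/L adenine, followed by sorting into GFP/RFP bins and Illumina sequencing of each bin (phred ≥30). For each variant with ≥100 reads and ≥30 cells, the bin median GFP/RFP values were weighted by its estimated cell share per bin and referenced to the unmutated parent tRNA.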

Variant | nonsense suppression
U17A G66A | ≤ 0.026
U17A G78A | 0.449
U17A G78A A87U | ≤ 0.026
U17A G88A | ≤ 0.026
U17A G88C | ≤ 0.026
U17A U21C C75U C81A G84U | ≤ 0.026
U17A U22C C27A | ≤ 0.026
U17A U57C G73C | ≤ 0.026
U17A U58A | ≤ 0.026
U17A U58A G59A G69U | ≤ 0.026
U17A U58C A60U G73C | ≤ 0.026
U17A U58G C75G | ≤ 0.026
U17A U63A C64U G66C A74C | ≤ 0.026
U17A U63A U70C G73C C77G | ≤ 0.026
U17A U63A U76C | 0.155
U17A U70G U71C | ≤ 0.026
U17A U71A A87U | ≤ 0.026
U17A U71C | ≤ 0.026
U17A U76A G86C | ≤ 0.026
U17C | 1.05
U17C A23C G26U | ≤ 0.026
U17C A23U A33U C56G G61U G65U | ≤ 0.026
U17C A24G G61C | ≤ 0.026
U17C A30G A31C C68A | ≤ 0.026

Variant | nonsense suppression
U17C A30G A60G | ≤ 0.026
U17C A30U | 0.16
U17C A33C | ≤ 0.026
U17C A54U | 0.788
U17C A60C C82U | ≤ 0.026
U17C A60C G67C U70A | ≤ 0.026
U17C A60G | 0.411
U17C A87G | 0.226
U17C A89U | ≤ 0.026
U17C C29G | ≤ 0.026
U17C C34A U63A U70C | ≤ 0.026
U17C C34G | ≤ 0.026
U17C C34U C80U | ≤ 0.026
U17C C68A C82U | ≤ 0.026
U17C C72U | ≤ 0.026
U17C C77A A87G | ≤ 0.026
U17C C77U | ≤ 0.026
U17C C82A | ≤ 0.026
U17C C83G | ≤ 0.026
U17C C83U | 0.191
U17C G18A | ≤ 0.026
U17C G18A G19C C29U G32A G59U | ≤ 0.026
U17C G18C | ≤ 0.026
U17C G18U C68U | ≤ 0.026

Variant | nonsense suppression
U17C G18U G69A U76C | ≤ 0.026
U17C G26C G67A U71C | ≤ 0.026
U17C G28A | 1.09
U17C G28C G85U | ≤ 0.026
U17C G28U A30C | ≤ 0.026
U17C G28U G65C | ≤ 0.026
U17C G28U G65U | ≤ 0.026
U17C G28U G67C | ≤ 0.026
U17C G59C G84C | ≤ 0.026
U17C G66A | ≤ 0.026
U17C G66C | ≤ 0.026
U17C G67U | ≤ 0.026
U17C G69C C83A | ≤ 0.026
U17C G73C | ≤ 0.026
U17C G78C | ≤ 0.026
U17C G86A | ≤ 0.026
U17C U20G C27U G59C | ≤ 0.026
U17C U21C G78A | ≤ 0.026
U17C U21G | 0.801
U17C U21G G73C G78A | ≤ 0.026
U17C U22A U70C | ≤ 0.026
U17C U22C U57C A60G U76C C82U A87U | ≤ 0.026
U17C U35A C68A | ≤ 0.026
U17C U35C G67A | ≤ 0.026

Variant | nonsense suppression
U17C U35G | ≤ 0.026
U17C U55C G59A G66C | ≤ 0.026
U17C U63A | 0.197
U17C U63A C72G | ≤ 0.026
U17C U63C G86U | ≤ 0.026
U17C U76C | 1.09
U17G | 0.999
U17G A23U U70G | ≤ 0.026
U17G A24C | 0.653
U17G A24G A30C A60C C64G | ≤ 0.026
U17G A24U C27U C64A U71G A89G | ≤ 0.026
U17G A30U C34G G66A | ≤ 0.026
U17G A30U G78U | ≤ 0.026
U17G A31G G78C C81U | ≤ 0.026
U17G A33U G88C | ≤ 0.026
U17G A33U U63C G65C | ≤ 0.026
U17G A54C C81G | ≤ 0.026
U17G A60C | 0.188
U17G A60C G67A | ≤ 0.026
U17G A60C G88A | ≤ 0.026
U17G A74C G78A | ≤ 0.026
U17G C27U C34U C82U | ≤ 0.026
U17G C56G U63G G69A U76G | ≤ 0.026
U17G C56U | ≤ 0.026

Variant | nonsense suppression
U17G C64A G65C | ≤ 0.026
U17G C68G | ≤ 0.026
U17G C68G A89C | ≤ 0.026
U17G C72G | ≤ 0.026
U17G C79U | 0.764
U17G C80A | ≤ 0.026
U17G C83A | ≤ 0.026
U17G G18C | ≤ 0.026
U17G G18C A24G G28A U57G C83U | ≤ 0.026
U17G G18U U55G G73A | ≤ 0.026
U17G G18U U70C | ≤ 0.026
U17G G19C G69U | ≤ 0.026
U17G G19C U21A U57A G78U | ≤ 0.026
U17G G19U G26A C80U | ≤ 0.026
U17G G25A | ≤ 0.026
U17G G25U | ≤ 0.026
U17G G26C | ≤ 0.026
U17G G28C | 0.209
U17G G32A | ≤ 0.026
U17G G32U G67C U71A | ≤ 0.026
U17G G32U G69C G85C | ≤ 0.026
U17G G59A C80A | ≤ 0.026
U17G G59A G65C | ≤ 0.026
U17G G61A G66U G88C | ≤ 0.026

Variant | nonsense suppression
U17G G61U | 0.832
U17G G61U C81A | ≤ 0.026
U17G G65A | ≤ 0.026
U17G G65C | ≤ 0.026
U17G G66C | ≤ 0.026
U17G G67A G73A | ≤ 0.026
U17G G69C | ≤ 0.026
U17G G73C G85U A89G | ≤ 0.026
U17G G73U | ≤ 0.026
U17G U20A A62C | ≤ 0.026
U17G U20A C79G | ≤ 0.026
U17G U21A | 1.16
U17G U21C C27A C56U | ≤ 0.026
U17G U21G | 0.717
U17G U21G C29G A89C | ≤ 0.026
U17G U21G G73U | ≤ 0.026
U17G U21G U55A | ≤ 0.026
U17G U22A G67U U70G U71G | ≤ 0.026
U17G U22C G28U U71C C81G | ≤ 0.026
U17G U22C G67U U76G G78C | ≤ 0.026
U17G U22G G86U | ≤ 0.026
U17G U55C G69U | ≤ 0.026
U17G U58G U76A | ≤ 0.026
U17G U63A G73C G78A C83G | ≤ 0.026

Variant | nonsense suppression
U17G U63C C68G | ≤ 0.026
G18A A23C A33U G66A | ≤ 0.026
G18A A23G G25A A33G A62G G67C | ≤ 0.026
G18A A24C C56U | ≤ 0.026
G18A A24C G25U | ≤ 0.026
G18A A24G G26A G84A | ≤ 0.026
G18A A30G | 0.0263
G18A A30G U35A U55A C79A | ≤ 0.026
G18A A31C C34A | ≤ 0.026
G18A A31G | ≤ 0.026
G18A A31U | ≤ 0.026
G18A A31U A89C | ≤ 0.026
G18A A54C G65C | ≤ 0.026
G18A A54C G88A | ≤ 0.026
G18A A54C U55A U58A G61U G67C | ≤ 0.026
G18A A60U | ≤ 0.026
G18A A74C | ≤ 0.026
G18A A87U | ≤ 0.026
G18A C27U G59C | ≤ 0.026
G18A C29A C68A G78C | ≤ 0.026
G18A C34A | ≤ 0.026
G18A C56A A62G G88C | ≤ 0.026
G18A C64G | ≤ 0.026
